According to PubChem BioAssay (NCATS):
“And” between values parts separate entries of the source, which are not always exact repeats. Equal values may be shown once. The list shows a part of the results. Shown are side measurements of this screen, not its main read-out; they come without a call. Potencies come from curve fits of mixed quality, noted in brackets.

Assay: qHTS drug screen for cell cycle checkpoint inhibitors in PARPi-resistant BRCA-mutant ovarian cancer cell lines. (AID 1963452)
Settings: PEO1/OlaR viability, CellTiter-Glo luminescence, 96 h
Method in brief: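 PEO1, PEO4 and PEO1/OlaR ovarian cancer cells, 600 per well, exposed 96 h at 37C to a dilution series. Viability read by CellTiter-Glo luminescence, normalized to DMSO and empty wells; activity summarized as Z-AUC.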

[1] = measured here: PEO1 parental viability
Tags tell the direction and shape of the fitted curve.

Compound: C=CC(=O)N1CCC[C@H](n2c(=O)n(-c3ccc(Oc4ccccc4)cc3)c3c(N)ncnc32)C1
- AC50 [1]: 13.8 µM [falling, partial curve, poor fit]
- AC50 (measured here: PEO4 viability): 19.5 µM [falling, partial curve, poor fit]

Compound: C/C=C/C[C@@H](C)C(=O)[C@H]1C(=O)N[C@@H](C(C)C)C(=O)N(C)CC(=O)N(C)[C@@H](CC(C)C)C(=O)N[C@@H](C(C)C)C(=O)N(C)[C@@H](CC(C)C)C(=O)N[C@@H](C)C(=O)N[C@H](C)C(=O)N(C)[C@@H](CC(C)C)C(=O)N(C)[C@@H](CC(C)C)C(=O)N(C)[C@@H](C(C)C)C(=O)N1C
- AC50 [1]: 0.0301 µM [falling, full curve]
- AC50 (measured here: PEO4 viability): 4.77 µM [falling, partial curve, poor fit]

Compound: CN(Cc1ccc(/C=C/C(=O)NO)cc1)CC12CC3CC(CC(C3)C1)C2
- AC50 [1]: 1.23 µM [falling, full curve]
- AC50 (measured here: PEO4 viability): 0.616 µM [falling, full curve]

Compound: CCNCCc1ccc(CN(CC)c2cc(OC)ccc2[C@@H]2CCc3cc(O)ccc3C2)cc1
- AC50 [1]: 2.75 µM [falling, full curve]
- AC50 (measured here: PEO4 viability): 4.9 µM [falling, full curve]

Compound: COc1cc2c3c(n(CCCn4ccnc4)c(=O)c2cc1OC)-c1cc2c(cc1C3=O)OCO2
- AC50 [1]: 0.0044 µM [falling, full curve]
- AC50 (measured here: PEO4 viability): 1.55 µM [falling, partial curve, poor fit]

Compound: CNCc1ccc(C)c(NC(=O)c2ccc(Nc3nc(-c4ccccc4)c4ccccc4n3)cc2)c1
- AC50 [1]: 19.5 µM [falling, single point]
- AC50 (measured here: PEO4 viability): 21.9 µM [falling, single point]

Compound: Cc1ccc(Nc2nnc(Cc3ccncc3)c3ccccc23)cc1Br
- AC50 [1]: 7.76 µM [falling, partial curve, poor fit]
- AC50 (measured here: PEO4 viability): 2.75 µM [falling, partial curve]

Compound: C[C@@H]1C[C@H](N)C[C@H](c2ccncc2NC(=O)c2ccc(F)c(-c3c(F)cccc3F)n2)C1
- AC50 [1]: 13.8 µM [falling, partial curve]
- AC50 (measured here: PEO4 viability): 21.9 µM [falling, partial curve]

Compound: Nc1nc(-c2nn(Cc3ccccc3F)c3ncccc23)ncc1C1CC1
- AC50 [1]: 1.1 µM [falling, full curve, poor fit]
- AC50 (measured here: PEO4 viability): 2.45 µM [falling, partial curve]

Compound: CCC1=C[C@@H]2CN(C1)Cc1c([nH]c3ccccc13)[C@@](C(=O)OC)(c1cc3c(cc1OC)N(C)[C@H]1[C@@](O)(C(=O)OC)[C@H](OC(C)=O)[C@]4(CC)C=CCN5CC[C@]31[C@@H]54)C2
- AC50 [1]: 0.425 µM [falling, full curve]
- AC50 (measured here: PEO4 viability): 0.535 µM [falling, full curve]

Compound: Nc1ccc(/C=C/C(=O)NCc2cc3cc(-c4ccc(C(=O)N5CCC(F)(F)CC5)cc4)cc(-c4ccc(F)cc4)c3o2)cn1
- AC50 [1]: 0.49 µM [falling, full curve]
- AC50 (measured here: PEO4 viability): 0.871 µM [falling, full curve]

Compound: C[C@H](c1ccc(F)cc1CCCC(=O)O)N(c1cc(F)ccc1F)S(=O)(=O)c1ccc(Cl)cc1
- AC50 [1]: 1.55 µM [rising, partial curve]
- AC50 (measured here: PEO4 viability): 8.71 µM [falling, partial curve, poor fit]

Compound: C=C1C(=O)OC2/C=C(/C)CC/C=C(/C)CCC12 (stereo unspecified)
- AC50 [1]: 27.5 µM [falling, single point]
- AC50 (measured here: PEO4 viability): 24.5 µM [falling, single point]

Compound: C[C@H](Nc1ncnc2nc[nH]c12)c1cc2cccc(Cl)c2c(=O)n1-c1ccccc1
- AC50 [1]: 13.8 µM [falling, single point] and 8.71 µM [falling, partial curve, poor fit]
- AC50 (measured here: PEO4 viability): 15.5 µM [falling, partial curve, poor fit] and 7.76 µM [falling, partial curve, poor fit]

Compound: C=CC(=O)Nc1cccc(C)c1Nc1ncc2cc(-c3c(Cl)c(OC)cc(OC)c3Cl)ccc2n1
- AC50 [1]: 6.92 µM [falling, partial curve]
- AC50 (measured here: PEO4 viability): 8.71 µM [falling, partial curve, poor fit]

Compound: CNC(=O)[C@H]1O[C@@H](n2cnc3c(NCc4cccc(I)c4)nc(Cl)nc32)[C@H](O)[C@@H]1O
- AC50 [1]: 17.4 µM [falling, single point]
- AC50 (measured here: PEO4 viability): 19.5 µM [falling, single point]

Compound: CN(C)CCCOc1ccc(-c2ccc3ncc4c(c3c2)n(C2CCOCC2)c(=O)n4C)cn1
- AC50 [1]: 4.25 µM [falling, partial curve]
- AC50 (measured here: PEO4 viability): 3.79 µM [falling, partial curve, poor fit]

Compound: O=C(/C=C/c1cccc(S(=O)(=O)Nc2ccccc2)c1)NO
- AC50 [1]: 2.19 µM [falling, full curve]
- AC50 (measured here: PEO4 viability): 2.75 µM [falling, partial curve]

Compound: COc1cc(-c2cc(-c3ccc(N4CCNCC4)cc3)cnc2C)cc(OC)c1OC
- AC50 [1]: 19.5 µM [falling, single point]
- AC50 (measured here: PEO4 viability): 15.5 µM [falling, single point]

Compound: Cc1ccc(-c2nn(C(C)(C)CNC(=O)c3ccncc3)c3ncnc(N)c23)cc1
- AC50 [1]: 7.76 µM [falling, partial curve]
- AC50 (measured here: PEO4 viability): 6.16 µM [falling, partial curve]

Compound: COC(=O)N[C@H](C(=O)N1CCC[C@H]1c1ncc(-c2ccc(-c3ccc(-c4cnc([C@@H]5CCCN5C(=O)[C@@H](NC(=O)OC)C(C)C)[nH]4)cc3)cc2)[nH]1)C(C)C
- AC50 [1]: 21.9 µM [falling, single point]
- AC50 (measured here: PEO4 viability): 15.5 µM [falling, single point]

Compound: CCN(CC)CCNc1ccc(C)c2sc3ccccc3c(=O)c12
- AC50 [1]: 24.5 µM [falling, single point]
- AC50 (measured here: PEO4 viability): 19.5 µM [falling, single point]

Compound: O=C(/C=C/c1ccc(Cl)cc1)N1CCC2(CC1)CN(Cc1ccc(Cl)c(Cl)c1)C(=O)O2
- AC50 [1]: 17.4 µM [falling, partial curve]
- AC50 (measured here: PEO4 viability): 13.8 µM [falling, partial curve]

Compound: COc1ccccc1C(=O)Nc1cc2c(cc1N1CCCC1)n(C)c(=O)n2C
- AC50 [1]: 2.19 µM [falling, partial curve, poor fit]
- AC50 (measured here: PEO4 viability): 27.5 µM [falling, single point]

Compound: COC1CC(C(=O)c2ccc3c(N)ncc(-c4ccc(-c5cnn(C)c5)cc4)c3n2)C1 (stereo unspecified)
- AC50 [1]: 21.9 µM [falling, single point]
- AC50 (measured here: PEO4 viability): 8.71 µM [falling, partial curve, poor fit]

Compound: C=CC(=O)Nc1cccc(Nc2nc(Nc3ccc(NC4CN(CCF)C4)cc3OC)ncc2C(F)(F)F)c1
- AC50 [1]: 9.77 µM [falling, partial curve]
- AC50 (measured here: PEO4 viability): 11 µM [falling, partial curve]

Compound: C[C@]12CC[C@H](O)CC1=CCC1C2CC[C@]2(C)C(n3cnc4ccccc43)=CCC12 (stereo partly specified)
- AC50 [1]: 15.5 µM [falling, single point]
- AC50 (measured here: PEO4 viability): 13.8 µM [falling, partial curve]

Compound: C=CC(=O)Nc1cccc(Nc2nc(Nc3ccc(N4CCN(C(C)=O)CC4)cc3OC)ncc2C(F)(F)F)c1
- AC50 [1]: 24.5 µM [falling, single point]
- AC50 (measured here: PEO4 viability): 24.5 µM [falling, single point]

Compound: COc1cccc(-c2cc(F)ccc2C2Cc3nc(N)nc(C)c3C(=O)N2)n1 (stereo unspecified)
- AC50 [1]: 0.0549 µM [falling, full curve]
- AC50 (measured here: PEO4 viability): 0.123 µM [falling, partial curve, poor fit]

Compound: C#C[C@]1(O)CC[C@H]2[C@@H]3[C@H](C)CC4=C(CCC(=O)C4)[C@H]3CC[C@@]21C
- AC50 [1]: 0.049 µM [falling, full curve]
- AC50 (measured here: PEO4 viability): 0.0087 µM [rising, full curve, poor fit]

Compound: CNc1nc(-c2ccc3c(N)n[nH]c3c2)cc(N2C[C@@H](C(=O)NC3CCCCC3)CC[C@H]2C)n1
- AC50 [1]: 15.5 µM [falling, partial curve]
- AC50 (measured here: PEO4 viability): 13.8 µM [falling, partial curve]

Compound: Cc1nc(NC(=O)N2CCC[C@H]2C(N)=O)sc1-c1csc(C(C)(C)C)n1
- AC50 [1]: 11 µM [falling, partial curve]
- AC50 (measured here: PEO4 viability): 9.77 µM [falling, partial curve, poor fit]

Compound: C/C(=C\C(=O)Nc1ccccc1C(=O)O)c1ccc2ccccc2c1
- AC50 [1]: 15.5 µM [falling, single point]
- AC50 (measured here: PEO4 viability): 15.5 µM [falling, partial curve]

Compound: CC(C)n1ncnc1-c1cn2c(n1)-c1ccc(O[C@@H](C)C(N)=O)cc1OCC2
- AC50 [1]: 4.9 µM [falling, partial curve]
- AC50 (measured here: PEO4 viability): 17.4 µM [falling, partial curve]

Compound: COCCNCc1ccc(-c2cc3nccc(Oc4ccc(NC(=S)NC(=O)Cc5ccc(F)cc5)cc4F)c3s2)nc1
- AC50 [1]: 11 µM [falling, partial curve]
- AC50 (measured here: PEO4 viability): 5.49 µM [falling, full curve]

Compound: C=CC(=O)N1CCC(Oc2cc3c(Nc4ccc(Cl)c(Cl)c4F)ncnc3cc2OC)CC1
- AC50 [1]: 7.76 µM [falling, partial curve]
- AC50 (measured here: PEO4 viability): 15.5 µM [falling, partial curve]

Compound: Cc1ccc(S(=O)(=O)Cc2nc(-c3ccc(C(=O)NCc4cccnc4)cc3)oc2C)cc1
- AC50 [1]: 0.049 µM [falling, full curve]
- AC50 (measured here: PEO4 viability): 0.0389 µM [falling, full curve]

Compound: CCCCNc1ncc2c(-c3ccc(F)cc3)nn(CC3CCC(N)CC3)c2n1 (stereo unspecified)
- AC50 [1]: 6.01 µM [falling, partial curve]
- AC50 (measured here: PEO4 viability): 6.01 µM [falling, partial curve, poor fit]
